# Among all 310,000 compounds or so, about 14,000 (4.5%) showed an effect of 50% or more. Effects have a minus sign here. The list shows a part of the results.
# Target: human ether-à-go-go-related gene (hERG) potassium channel (human, UniProt Q12809)
# Experiment: primary screen, population patch clamp on CHO cells stably expressing hERG
# 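Also: peak tail current of the secondary pulse compared with the same well before compound.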
# Sequence of human ether-à-go-go-related gene (hERG) potassium channel (Q12809 whole entry, looked up): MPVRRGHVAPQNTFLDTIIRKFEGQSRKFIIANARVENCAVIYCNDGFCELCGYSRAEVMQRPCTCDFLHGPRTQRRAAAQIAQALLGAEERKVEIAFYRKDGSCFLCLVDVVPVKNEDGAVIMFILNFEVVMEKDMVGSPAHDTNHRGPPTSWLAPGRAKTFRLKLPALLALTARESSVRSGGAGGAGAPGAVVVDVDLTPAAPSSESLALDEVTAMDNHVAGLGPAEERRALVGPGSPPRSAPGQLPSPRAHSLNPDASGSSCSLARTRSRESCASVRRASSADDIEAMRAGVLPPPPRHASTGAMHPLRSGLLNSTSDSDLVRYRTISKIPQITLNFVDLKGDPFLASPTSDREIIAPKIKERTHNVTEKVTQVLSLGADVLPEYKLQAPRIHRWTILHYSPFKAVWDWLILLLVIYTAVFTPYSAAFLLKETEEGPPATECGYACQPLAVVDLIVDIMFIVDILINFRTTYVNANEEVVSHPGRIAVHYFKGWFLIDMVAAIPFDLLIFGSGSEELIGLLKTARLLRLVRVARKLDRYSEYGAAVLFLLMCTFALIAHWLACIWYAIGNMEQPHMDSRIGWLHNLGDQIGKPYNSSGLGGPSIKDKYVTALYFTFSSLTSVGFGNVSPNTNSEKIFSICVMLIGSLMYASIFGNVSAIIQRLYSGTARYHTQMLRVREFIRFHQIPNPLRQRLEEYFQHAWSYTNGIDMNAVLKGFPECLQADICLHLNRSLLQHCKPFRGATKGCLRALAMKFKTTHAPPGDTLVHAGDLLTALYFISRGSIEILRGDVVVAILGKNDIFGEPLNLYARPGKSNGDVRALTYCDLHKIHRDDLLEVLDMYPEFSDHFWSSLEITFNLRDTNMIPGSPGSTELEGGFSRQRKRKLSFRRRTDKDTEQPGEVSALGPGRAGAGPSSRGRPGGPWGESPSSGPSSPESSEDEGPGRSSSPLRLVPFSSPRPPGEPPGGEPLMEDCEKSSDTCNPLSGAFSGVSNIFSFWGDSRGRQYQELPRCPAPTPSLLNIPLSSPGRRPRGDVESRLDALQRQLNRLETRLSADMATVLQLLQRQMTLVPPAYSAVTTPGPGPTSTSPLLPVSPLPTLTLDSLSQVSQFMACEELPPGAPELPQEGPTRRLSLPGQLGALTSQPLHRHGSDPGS
row,SMILES,"hERG current change (%, negative = inhibition) at 10uM [%]"
1,Cc1cccc(NC(=O)c2ccc3nsnc3c2)c1C,37
2,NC(=O)c1ccsc1NC(=O)COC(=O)COc1ccccc1[N+](=O)[O-],4.94
3,COc1cc(-c2cc(C(=O)Nc3ccncc3)c3ccccc3n2)cc(OC)c1OC,-32.1
4,O=C(COc1ccccc1Cl)NNC(=O)Cn1[nH]c(=O)c2ccccc2c1=O,-17.2
5,C=CCC1(CC=C)CCCN1C(=O)CC1C(=O)NCCN1Cc1cc(OC)cc(OC)c1 (centres unmarked),6.89
6,CN(C)S(=O)(=O)c1ccc(NC(=O)C2CC3C=CC2C3)cc1 (centres unmarked),9.32
7,COc1cc(Br)cc2cc(C(=O)N3CCN(C(=O)c4ccco4)CC3)c(=O)oc12,-29.3
8,O=C(O)C1OC(Oc2c(-c3ccc(O)c(O)c3)oc3cc(O)cc(O)c3c2=O)C(O)C(O)C1O (centres unmarked),20.3
9,Cc1csc(SCC(=O)Nc2ncc(Cl)c(C)c2Cl)n1,-8.92
10,Nc1ncnc(Sc2ccc(Cl)cc2)c1[N+](=O)[O-],5.68
11,Cc1[nH]nc2c1C(c1ccc(O)cc1)C1=C(CC(C)(C)CC1=O)N2 (centres unmarked),20.1
12,CC(=O)c1sc(NC(=O)c2cc3c(C)nn(-c4ccccc4)c3s2)nc1C,18.8
13,Cc1cc(C)n(C(=O)c2ccc(C)c(F)c2F)n1,3.16
14,O=C(NCCc1ccccc1)C1CCCN(S(=O)(=O)c2cccc3nsnc23)C1 (centres unmarked),13.5
15,Nc1c2c(nc3ccccc13)CCN(Cc1ccccc1)C2,-56.1
16,COc1ccc(Cc2nn3c(-c4ccccc4Br)nnc3s2)cc1,-24.3
17,Cc1cc(O)c(/C=N/Nc2cccc(Cl)c2)c(=O)o1,1.55
18,O=C(CSc1nc2ccccc2c(=O)n1CC1CCCO1)NCC1CCCO1 (centres unmarked),-23.3
19,Cn1c(-c2ccccc2)cnc1NCc1cc2c(cc1[N+](=O)[O-])OCO2,-55

row,SMILES,"hERG current change (%, negative = inhibition) at 10uM [%]"
1,CC(C)CN(C(=O)CSc1nnc2ccccn12)c1c(N)n(CC(C)C)c(=O)[nH]c1=O,10.1
2,COc1ccc2nc(Nc3nc4cc5c(cc4s3)OCCO5)sc2c1,1.61
3,COc1cc(NC(=O)CSc2nc3c(C)ccc(C)c3cc2C)c(C(=O)O)cc1OC,6.24
4,Cc1oc(-c2ccccc2Cl)nc1CS(=O)(=O)CC(=O)NCCN1CCOCC1,-2.44
5,Cc1cc2c(c(Sc3ccccc3)n1)C(=O)OC2,-6.04
6,Cc1ccc(NC2OC(CO)C(O)C2O)cc1[N+](=O)[O-] (centres unmarked),-0.74
7,CC(=O)Nc1ccc(OC(F)(F)C(F)C(F)(F)F)c(NC(C)=O)c1 (centres unmarked),-2.05
8,Clc1ccc(-c2nc(Cc3ccccc3Cl)no2)cc1,-0.151
9,O=C(NC1=NCCS1)c1cccc(OC(F)F)c1,-7.06
10,COC(=O)c1cccc(C(=O)Nc2ccc(C)cc2Br)n1,-6.53
11,CC(=O)N1CN(CCCn2ccnc2)Cc2c1sc1c2CCCC1,-5.68
12,C=CCSc1nnc(NC(=O)c2ccc(S(=O)(=O)NCC3CCCO3)cc2)s1 (centres unmarked),13.5
13,CCNC(=O)NC(=O)C(C)OC(=O)[C@H](C)NS(=O)(=O)c1c(C)c(C)cc(C)c1C (some centres unmarked),-8.81
14,CSc1ccc(C(=O)C2CCCN(C(=O)Cn3cnnn3)C2)cc1 (centres unmarked),-12.8
15,CCC(C)N1CCNCC1.Cl (centres unmarked),20.1
16,COc1cc(/C=N/NC(=O)CCc2c(C)n[nH]c2C)ccc1O,10.4
17,O=S(=O)(N1CCCCC1)N1CCN(c2ccccc2F)CC1,3.85
18,CC(=O)Nc1sc(C)c(C)c1CN1CCN(S(=O)(=O)c2ccccc2)CC1,-40.4
19,CS(=O)(=O)c1ccc2nc(NC(=O)c3cccc(Cl)c3)sc2c1,9.47

row,SMILES,"hERG current change (%, negative = inhibition) at 10uM [%]"
1,N#C/C(=C\c1ccc(F)cc1)C(=O)NC1CCS(=O)(=O)C1 (centres unmarked),7.7
2,O=C(COc1ccc(S(=O)(=O)N2CCCCC2)cc1Cl)N1CCOCC1,16.2
3,CN=c1scc(C)n1/N=C/c1ccc(O)cc1,4.97
4,CC(C)OC(=O)Nc1ccc(-c2ccc(NC(=O)OC(C)C)cc2Cl)c(Cl)c1,24.5
5,O=S(=O)(CC(O)COc1ccc(Br)cc1)c1ccccc1 (centres unmarked),-5.07
6,O=C(N1CCCCC1)N1CCN(S(=O)(=O)c2ccccc2)CC1,10.4
7,COc1ccc(C(=O)N[C@H](C(=O)Nc2nc3c(s2)CCCC3)C(C)C)cc1,-4.13
8,COc1ccc(-c2nc(=S)c3c([nH]2)Oc2ccc(C)cc2C3)cc1O,10.3
9,COC(=O)C1=C(c2c(C)noc2C)C[C@@H]2CC[C@H]1N2C(=O)NCCOc1ccccc1Cl,-3.65
10,COCCn1c(=O)[nH]c2cc(C(=O)NCCN3CCN(c4ccc(OC)cc4)CC3)ccc2c1=O,10.3
11,N/C(=N\NS(=O)(=O)c1ccccc1Cl)c1ccccn1,15.1
12,COc1ccc(N(C)S(=O)(=O)c2ccc(Cl)c(C(=O)NCC(C)(C)N3CCOCC3)c2)cc1,-41.5
13,CCN1C(=O)N(C)[C@@H](c2ccccc2)C(C(C)=O)=C1C,23.8
14,Cc1nnc2c(NCCc3ccccc3)nc3ccccc3n12,12.1
15,COc1ccc(OCC(O)CN(C)C(=O)C(C)Oc2ccccc2)cc1 (centres unmarked),6.31
16,CCCN1CCN(C(=O)c2oc3ccccc3c2NC(=O)COc2ccc(OC)cc2)CC1,-79.5
17,COc1ccc(C2C(C(=O)NC(C)C)c3ccccc3C(=O)N2C)cc1OC (centres unmarked),12.6
18,COc1ccc(S(=O)(=O)N2CCN(C(=O)c3oc4ccccc4c3C)CC2)cc1,-12.9

# Source: PMC4336329 (PLoS ONE, 2015)
